Laboratory results reported in the supplement of paper PMC3334620.
Whole data set: some 33,000 sequences, median “E-score (-0.5 to 0.5)” near -0.056, cut for the highest 2% near 0.38. The list shows a part of the results.

Target: Stb4 (UniProt P50104)
Assay: PBM E-score (8-mer binding enrichment) (E-score (-0.5 to 0.5)); higher = stronger / more preferred TF binding; most listed sequences are background and not binding sites
Details: protein concentration: 200 nM; construct: GST-DNA-binding domain
Procedure, shortened: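 GST-tagged yeast TFs (full-length or DNA-binding domain) were made by PURExpress in vitro transcription/translation and applied at about 100-200 nM to universal all-10-mer Agilent arrays. The arrays were made double-stranded by primer extension, on fresh or once-stripped slides. Bound protein was detected with fluorescent anti-GST, and scans were normalised with masliner. Each ungapped eight-base word, pooled with its reverse complement, received an E-score (modified Wilcoxon-Mann-Whitney statistic) from the Universal PBM Analysis Suite.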

Sequence	PBM E-score
CCGGGAGA	0.291
GTCTTAAC	-0.282
CAATTTAC	-0.00625
CCCCAGTA	-0.128
CCGAAACG	0.373
CCAAGAGC	-0.131
ATAGGCTC	0.0035
CTTCTTGC	-0.0322
ACGCCCCA	0.0489
CGCCAGCC	0.132
ACACTGGC	-0.049
GGGAAGCA	0.0636
CGGCGGAC	0.272
AGTATAGA	0.0645
AATGTACG	-0.0886
CCTTCTAC	-0.133
AAGACAAT	-0.0577
ACAGTTCC	0.294
CGCGGCCG	0.136
GTGCTTCA	-0.0371
ACTTGGGG	-0.0254
GCAACTGC	-0.036
CCAGAGAA	-0.132
AATGCCCA	-0.139
ATCTCGGC	0.442

Sequence	PBM E-score
GCCCATTA	-0.168
ACAATAAG	-0.121
CAAAAAAC	-0.0375
GACAAACC	0.0235
TACAGAGA	-0.134
CGTTCCAG	-0.0906
AAGTAGAG	-0.21
GGGCTGAC	0.0244
ACGGGTAC	0.28
CTATTACC	0.143
CCAGTGGC	-0.211
TAAAATGA	0.0974
AAGGTCGG	0.251
CCCACTAA	-0.101
ACACATCT	-0.0649
AATAAGTG	-0.224
AGCTTCTA	-0.0169
AGAAATGA	-0.126
TACCAGAA	-0.0535
ATGACCCC	0.00736
CGTTCGAC	-0.218
ACCGACTC	0.2
CGGGTGTA	0.334
TACAGCGA	-0.212
GCTTTCCC	0.0481

Sequence	PBM E-score
CTTGTACC	-0.00495
AAGGTTAC	0.0187
AAATGGCT	-0.0926
ATTCAATG	-0.0412
ACTACTAC	0.0543
ATCGTCTC	-0.00579
TGCATGCA	-0.292
AGCTCGTA	-0.189
CAGAGTCC	-0.108
GAATCCTC	-0.00312
CCCAGCTC	-0.0394
CGTGGCAC	-0.178
ACGTACAA	-0.0237
CTTTAGGC	-0.188
CCCTAGCC	-0.0141
GCCCGGCA	0.192
CTCAACGA	-0.106
ATGACGCA	-0.183
ATGGGAGG	-0.0739
CCTCGTAG	-0.251
GTACTTGA	-0.079
CGCGGCAA	0.303
ATTTCATA	-0.0793
ACTACATG	-0.106
GTCAGGCA	-0.118

Sequence	PBM E-score
ATCTACGG	0.149
CGGATACG	0.409
ACAAAGAG	-0.197
CAGTCGGC	0.228
CCAGCCAA	-0.108
AGCTCACT	-0.248
CGTTGCTA	-0.181
AGTTCGTG	-0.157
AGCTATCG	-0.078
CTTAACGA	-0.026
CGTGTTGA	-0.0328
AGCGGCTA	0.186
ATTGCGCC	-0.0115
AGACATAG	-0.0369
TCAATGAA	-0.132
AGGTTAGC	-0.0813
AGAACACA	-0.255
CGAACATA	0.0507
CTATGTGA	-0.161
GGATCCCA	0.102
TAGACCAA	-0.144
GCACCTAC	-0.0284
CAGTCAAG	-0.249
CAGTGATG	-0.372
AAAAAATC	0.0808

Sequence	PBM E-score
ACTTGGAC	0.039
GGGGGGAC	-0.211
CCGCTGAG	-0.064
ACCTGCCG	0.221
ACCTTCTC	-0.0577
TGCGTAAA	-0.191
ATGTCCAA	-0.0387
TATGCTCA	0.00047
GCTGTGAA	-0.169
CCTTGCAA	-0.252
ACAGGTTA	-0.221
CCCAACCA	-0.0358
ACGGGAGA	0.12
ATTCAAAC	0.015
AGTAGTCG	-0.0431
AGGAGTAC	-0.133
CACCATTC	-0.147
ACCAATGA	-0.264
AATTTTAT	0.159
ATAGTTGG	-0.056
AGTCCGAA	0.332
AATAAGAG	0.154
CCCAAGGG	-0.204
GTGACGAA	-0.0785
ACCGGGAC	0.241

Sequence	PBM E-score
GATAATAA	0.107
CGGAAGTA	0.419
CGGGCATC	0.0417
GATATTGC	0.0272
CCCCACCG	0.126
GCCGAAGC	0.385
AGGTGCCG	0.346
CAGTAAGC	0.00856
CGCTAAAC	0.0319
ATGCCCAG	0.0828
CCGTAGAG	0.0108
GTTCACCA	-0.0785
AATTCATC	0.0251
AGCCCCAG	-0.0794
AATGAGCA	-0.0677
GAAAACCC	0.0948
CGTTCTTC	0.036
GCGAAGAC	0.022
ATACGTCA	0.00039
AGCGGTCG	0.0108
ACCTCCCA	-0.306
ATGTTCTA	-0.0115
AAACTTGC	-0.00659
CCTTATTA	-0.0382
AAGGCATT	-0.0889

Sequence	PBM E-score
ACCCACTC	-0.0452
CCCCAGAG	-0.188
AATTGACT	-0.0473
CAGGACTC	-0.113
AAAGGTGT	0.11
CACGTACC	-0.0431
ACCAGCCA	-0.0271
ATCGGCCA	0.0548
GACGACGC	-0.199
CGTGTCAC	0.0483
GGCTGCTA	-0.093
GACCAATA	-0.12
AGTGCCAT	-0.0804
CCGCCCTC	0.239
GCACTAGC	0.0133
CCGTCGGA	0.397
CAAGTTTC	-0.0496
ACCATGCT	-0.0747
CTAGCTGC	-0.171
GACTGACC	-0.17
ACCCACAA	0.0175
AGAGCAGC	-0.148
CAACTCGG	0.334
TCCATTCA	-0.0703
ACTAGCAG	-0.298

Sequence	PBM E-score
CTGTAGTC	-0.0677
AGCTCTAC	-0.192
GAATTCCC	0.215
CCTTGCCA	-0.161
ATACTAAG	-0.115
ATGCTGCC	-0.00862
CCGAGAAA	0.451
GAAGCGCA	0.082
GCCTCTAC	-0.144
GGTAATAC	0.222
ATAAGTTA	-0.0932
AGGGTCAA	-0.0503
CCAGCAGC	-0.212
ACCGATAA	0.26
AGCCCTTA	-0.203
GTCGTAAC	-0.0423
CCGTGTAG	0.00178
GCGTAAGC	-0.121
CAGCTATA	-0.148
CGCTAAGA	-0.0541
ATGCATAG	-0.114
CTCAGTCC	-0.169
CAACCATA	-0.251
CGCGTGCA	-0.0517
CGAATCAA	0.0967

Sequence	PBM E-score
GATGATAC	0.0686
TACATACA	-0.138
ATAAACGG	0.1
AGAAAAGG	-0.0928
GCTAATAA	0.0221
ACCGTAGG	-0.189
CACCCCTG	-0.131
AATCGTCA	-0.181
GCCCGCGC	0.135
CAGGCAGG	-0.156
AATCGTGA	-0.0883
CGGCGACG	0.131
CGCGTTAA	0.0123
CCTATCCG	0.391
GGGAGATA	-0.00607
AGTATGAT	-0.121
TCATCGAA	-0.153
CCGATCGC	0.167
CGAACACA	0.0274
AGAGAATC	-0.102
GGCGAGCA	-0.0439
GTCTAAAA	-0.0585
CCGGTGAG	0.0591
ACGTTTTG	-0.297
CGCGGTTA	0.152

Sequence	PBM E-score
AAAGGTGA	-0.25
GGATTGCA	-0.021
GACGTATA	-0.0864
ACGTCAGT	-0.159
CACGCCAA	-0.0394
ATAAAAGC	-0.0806
GATGAGGC	-0.0304
AGTGGTTC	0.0362
TTACCAAA	-0.114
CCTGTACG	-0.085
AGTGTCGG	0.331
CACGTCGG	0.327
CAATCGGA	0.374
CCATCGTC	-0.0841
CACTGGTA	-0.276
ATCACTAG	-0.259
GGTACACC	-0.0473
AATAGAAT	-0.19
GAGTCCAA	-0.067
GTACGCAC	-0.18
CACCGGTA	0.138
TATTCGAA	-0.2
CAGCTGTA	-0.16
CAGAAAAC	-0.197
ACGGCTCG	0.318

Sequence	PBM E-score
GTCAACAC	0.0159
AATGTACT	-0.0625
CTAGTCCC	0.0489
CAACAGAC	-0.0377
TGACGGCA	0.154
CTGACTTA	-0.0075
ACTTCTCT	-0.231
AATTGCCC	0.0563
CTTACATC	0.0186
TACCGTGA	0.0433
GAGACGGA	0.219
CTTGAGTC	0.0303
ATAGAGCG	0.00392
ATGGTGCA	-0.141
ACTGTCAA	-0.177
ATCGCCCG	0.152
ACCGGTCA	0.00818
CCAGAACG	-0.0798
AGCAGGCT	-0.0373
GGCTTCCA	-0.112
ATGATAAC	-0.118
AGGTATGA	-0.0676
ATGCAACG	-0.0843
ACAACGTC	-0.00293
GACGGTAC	0.148

Sequence	PBM E-score
CAGATCTA	-0.242
ATCACATA	-0.118
CACCATGA	0.0556
CACGGGTC	0.165
CGCCCCTC	0.0786
GGATTCCA	0.13
GATGAGCC	0.132
CCCTAGCG	-0.328
ACAATCAA	-0.0127
GACGGAGC	0.164
AACGACAA	-0.0274
AAATGATG	-0.0263
AGATTATC	0.0664
ATTACCGA	0.378
AGTCCACG	-0.182
CACATTCG	0.0659
ATCGGTGA	0.0519
CCGTTATC	0.218
AGCGAAGG	0.0247
CTCCCTAA	-0.142
AATGCTCA	-0.231
CGCGAACA	-0.187
CTTTCCGA	0.463
ATGACCGC	-0.144
ACTGATCA	-0.23

Sequence	PBM E-score
AATTGCTC	-0.0642
ATAGATTA	-0.0537
GCCCGAAA	0.276
CCGCTTTA	0.138
GGGTGTTA	0.125
AGACGCTG	-0.162
GCCGTCCA	0.0408
CATCGCAG	-0.235
AACGAATT	-0.141
GAAGATTA	0.102
TCATCACA	-0.354
ACACAGCT	-0.159
TAGGTGCA	-0.153
CCAACAAA	-0.103
GAAGAACA	0.216
ACAGGAAG	-0.15
AAACCTAA	0.0559
ACGCACGG	0.237
CAGGTGCC	-0.0121
GACTCATC	-0.171
ATTCGGTA	0.36
AGATGGAC	0.0592
GTCGATAA	-0.0907
CAACTTGA	-0.0653
ATGGGGGA	-0.135

Sequence	PBM E-score
AAAGAAGT	-0.0721
ACTGAGCA	-0.219
ACGAATGG	-0.0432
AATGCGCT	-0.284
CGCAACCA	0.0707
CAACGCTA	-0.134
CTTTGGGC	0.135
GCTAACCC	-0.078
CCCAGCAA	-0.126
GTCAAGGA	-0.0328
ATAGCTAG	-0.105
CGAGAGGA	0.074
CGACGGTA	0.115
CATTGCAG	-0.264
CCAGAGAC	-0.243
AGTTGACC	0.161
GATTTCTA	0.192
AATTACAT	-0.0483
CGGGACAA	0.31
